In PubChem BioAssay AID504339 (National Center for Advancing Translational Sciences (NCATS), 2011):
Screen size: about 390,000 compounds; about 17,000 (4.4%) were called active. Inconclusive means that the source gave no clear call. Such entries were picked first, then a sample of the others. Calls follow the shape of the dose curve; as a rule, active = well fitted inhibition curve with a large enough effect; inconclusive = small, poorly fitted or top-dose-only effect; inactive = no such curve, though single readings can be large or run the other way. A potency beside an inconclusive call is a rough fit, not a confirmed value.

target: Lysine-specific demethylase 4A (Homo sapiens) (UniProt O75164); test: qHTS Assay for Inhibitors of JMJD2A-Tudor Domain; details: AlphaScreen JMJD2A-Tudor / H3K4me3 peptide binding; activity change, negative = inhibition: at 114 µM (top of the series); also: nearly all actives have a fitted effect of over 50% in size
Chain of UniProt O75164 (O75164 whole entry, looked up, the tested form may be a part): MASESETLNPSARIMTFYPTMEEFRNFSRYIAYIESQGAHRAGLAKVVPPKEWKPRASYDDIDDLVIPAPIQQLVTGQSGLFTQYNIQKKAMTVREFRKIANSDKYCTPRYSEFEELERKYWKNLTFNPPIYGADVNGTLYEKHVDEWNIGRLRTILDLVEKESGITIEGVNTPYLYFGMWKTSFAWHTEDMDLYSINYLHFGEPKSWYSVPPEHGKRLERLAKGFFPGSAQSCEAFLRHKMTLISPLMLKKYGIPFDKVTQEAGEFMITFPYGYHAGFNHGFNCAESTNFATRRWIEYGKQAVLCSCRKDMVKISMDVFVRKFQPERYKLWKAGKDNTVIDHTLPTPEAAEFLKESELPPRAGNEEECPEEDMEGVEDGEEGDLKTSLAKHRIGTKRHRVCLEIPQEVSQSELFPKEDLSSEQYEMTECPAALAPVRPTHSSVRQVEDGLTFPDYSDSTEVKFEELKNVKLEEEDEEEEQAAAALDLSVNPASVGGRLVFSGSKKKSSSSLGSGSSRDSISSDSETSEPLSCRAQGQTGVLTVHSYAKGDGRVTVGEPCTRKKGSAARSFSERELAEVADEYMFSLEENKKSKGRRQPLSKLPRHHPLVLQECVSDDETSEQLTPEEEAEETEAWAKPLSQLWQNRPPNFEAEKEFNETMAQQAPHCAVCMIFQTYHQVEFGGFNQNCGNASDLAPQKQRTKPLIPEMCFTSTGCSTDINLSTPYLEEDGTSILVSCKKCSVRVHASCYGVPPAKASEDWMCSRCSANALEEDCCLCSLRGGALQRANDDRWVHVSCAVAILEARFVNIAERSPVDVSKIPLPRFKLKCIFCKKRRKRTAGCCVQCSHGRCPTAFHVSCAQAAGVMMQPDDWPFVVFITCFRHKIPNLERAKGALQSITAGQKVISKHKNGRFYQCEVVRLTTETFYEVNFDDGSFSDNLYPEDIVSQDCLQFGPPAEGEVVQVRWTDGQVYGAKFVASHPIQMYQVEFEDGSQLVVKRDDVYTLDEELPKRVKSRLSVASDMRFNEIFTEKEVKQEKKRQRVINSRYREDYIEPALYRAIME
% is scaled to controls: 0 for no effect and ±100 for the full control effect; potency is read from the fitted curve at half-maximal effect; tags tell the direction and shape of the fitted curve.

| SMILES | Potency | activity change, negative = inhibition |
| --- | --- | --- |
| NC(=O)[C@H]1CC2(CC(c3cccc(NC(=O)CC(c4ccccc4)c4ccccc4)c3)=NO2)CN1C(=O)c1ccccc1C(=O)c1ccccc1 (stereo partly specified) | inconclusive: 28.2 µM [inhibitor, full curve, poor fit] | – |
| CC(=O)c1ccc(NC(=O)COCc2cc(-c3ccco3)on2)cc1 | inconclusive: 56.2 µM [inhibitor, partial curve] | – |
| CCOC(=O)c1ccc(NC(=O)N2CCN(c3ccccc3OC)CC2)cc1 | active: 79.4 µM | – |
| CN(C(=O)c1ccno1)c1nnc(-c2cnccn2)s1 | inactive | – |
| Cc1ccccc1OCc1nnc(SCc2cc(=O)c3cccc(F)c3[nH]2)n1C | inactive | – |
| O=C(/C=C/c1ccccc1)NC(=O)c1ccccc1O | inconclusive: 63.1 µM [inhibitor, partial curve, poor fit] | – |
| CN(c1ccc(F)cc1)S(=O)(=O)c1ccc(Cl)c(C(=O)NCC(c2ccco2)N2CCCCC2)c1 (stereo unspecified) | – | inconclusive: -100% [inhibitor] |
| Cc1ccc(C)c(CSc2nc3ccncc3n2CC(=O)Nc2ccc(N(C)C)cc2)c1 | inconclusive: 15.8 µM [inhibitor, partial curve] | – |
| Cc1ccc(NC(=O)CSc2nc(-c3ccco3)nc3cc(=O)[nH]n23)cc1C | inactive | – |
| c1ccc2c(c1)CSc1sccc1C2=C1CCNCC1 | inconclusive: 39.8 µM [inhibitor, partial curve] | – |
| COC(=O)C1=C(CN2CCc3ccccc32)NC(=O)NC1c1cc(C)ccc1C (stereo unspecified) | inconclusive: 56.2 µM [inhibitor, partial curve] | – |
| CCN(c1ccccc1)S(=O)(=O)c1ccc(Cl)c(NC(=O)CNCc2ccccc2OC)c1 | active: 3.16 µM | – |
| Cn1c(C(=O)Nc2ccc3c(c2)OCO3)cc2c(=O)n(C)c3ccccc3c21 | inconclusive: 63.1 µM [inhibitor, partial curve, poor fit] | – |
| NC(=O)C1CCN(c2cc(Cl)nc(N)n2)CC1 | active: 10 µM | – |
| COc1ccc(-n2c(C)cc(C(=O)CSc3nnc(-c4ccoc4C)n3C)c2C)cc1 | inconclusive: 8.91 µM [inhibitor, full curve] | – |
| COc1cccc(NC(=O)Cc2ccccc2)c1 | inactive | – |
| CC(=O)O[C@H]1[C@@H](O)[C@H](O)[C@H](Oc2c(O)c(C)c3c4c2[C@@H](C)CC[C@@H]4[C@@H](C)C[C@H]3C=C(C)C)O[C@H]1C | inconclusive: 44.7 µM [inhibitor, partial curve] | – |
| CCOC(=O)c1cc(C)n(CC2CCC(C(=O)Nc3ccc(C)c(F)c3)CC2)c1C (stereo unspecified) | inactive | – |
| Cc1cccc(Nc2nc(N)nc(CN3CCC(C(N)=O)CC3)n2)c1C | inconclusive: 89.1 µM [inhibitor, single point] | – |
| O=[N+]([O-])c1cnccc1Nc1ccccc1 | inconclusive: 17.8 µM [inhibitor, partial curve] | – |
| COc1ccc2nc(NC(=O)c3cccc(-c4cc5ccccc5oc4=O)c3)sc2c1 | inconclusive: 25.1 µM [inhibitor, single point] | – |
| Cc1ccc(N(O)C(=O)NCCCCNC(=O)N(O)c2ccc(C)cc2)cc1 | inconclusive: 44.7 µM [inhibitor, partial curve] | – |
| Cc1ccccc1-n1nc(CO)c(C(=O)NCc2cccs2)n1 | inactive | – |
| O=C(Cn1c(=O)n(-c2ccccc2Cl)c(=O)c2sc3ccccc3c21)NC1CCCCC1 | inactive | – |

| SMILES | Potency | activity change, negative = inhibition |
| --- | --- | --- |
| CCN(CC(=O)Nc1ccc(NC(C)=O)cc1)C(=O)c1sc2nc3n(c(=O)c2c1C)CCC3 | inactive | – |
| Cc1c(NC(=O)c2nc3ccccc3nc2N2CCCCC2)cccc1[N+](=O)[O-] | inconclusive: 35.5 µM [inhibitor, partial curve] | – |
| CN(C)CCCN(C(=O)c1cc(Cl)sc1Cl)c1nc2cc3c(cc2s1)OCO3 | inconclusive: 56.2 µM [inhibitor, partial curve] | – |
| CCn1c(SCC(=O)Nc2oc(-c3ccccc3)c(-c3ccccc3)c2C#N)nnc1-c1ccco1 | inconclusive: 39.8 µM [inhibitor, partial curve] | – |
| CCOc1ccccc1NC(=S)N1CCN(c2ccc(OC)cc2)CC1 | inconclusive: 50.1 µM [inhibitor, partial curve] | – |
| O=C(O)CSc1cc(NS(=O)(=O)c2ccc(Br)cc2)c2ccccc2c1O | active: 20 µM | – |
| CS(=O)(=O)c1ccc(CNC(=O)C2(C(F)(F)F)C/C(=C\Cc3ccccc3)CCCO2)cc1 (stereo unspecified) | inactive | – |
| Cc1csc2nc(COc3ccccc3NC(=O)c3ccc(C(C)(C)C)cc3)cc(=O)n12 | inactive | – |
| CCc1ccc(C(=O)Cn2ncc(Cl)c(Cl)c2=O)cc1 | inconclusive: 70.8 µM [inhibitor, partial curve] | – |
| CC(=O)c1cccc(S(=O)(=O)Nc2ccc(N3CCOCC3)cc2)c1 | inactive | – |
| O=C(CN1C(=O)/C(=C/c2ccccc2)SC1=S)N1CCN(CCc2ccccn2)CC1 | inconclusive: 44.7 µM [inhibitor, partial curve] | – |
| COc1cc(/C=N/NC(=O)c2cc(C)n(-c3ccc(F)cc3)c2C)cc(OC)c1O | inconclusive: 89.1 µM [inhibitor, single point] | – |
| O=C(Nc1nnc(-c2ccco2)o1)c1cccc(N2C(=O)CCC2=O)c1 | active: 4.47 µM | – |
| O=C(COc1ccc(Cl)cc1Cl)NNC(=S)NC(=O)c1ccco1 | inconclusive: 70.8 µM [inhibitor, single point] | – |
| CC(C)(C)c1ccc(C(=O)NNc2ccc(F)cc2F)cc1 | active: 89.1 µM | – |
| CCCCCC(=O)Nc1cccc(C2=NOC3(C2)C[C@H](C(N)=O)N(C(=O)COc2ccc(Cl)cc2)C3)c1 (stereo partly specified) | inactive | – |
| Cc1ccc(S(=O)(=O)C2(S(=O)(=O)c3ccc(C)cc3)CC2)cc1 | inactive | – |
| Cc1cccc(N=C2NC(=O)/C(=C/c3cccn3C)S2)c1C | inconclusive: 31.6 µM [inhibitor, partial curve] | – |
| Cc1cccc(CN2CCc3c([nH]c4ccccc34)C2)c1 | active: 20 µM | – |
| COC(=O)c1ccc(CSc2nncn2N)cc1 | inconclusive: 50.1 µM [inhibitor, partial curve, poor fit] | – |
| CCOc1cc(CNCc2ccccn2)ccc1OCC(=O)NC(C)(C)C | inconclusive: 15.8 µM [inhibitor, single point] | – |
| CCOc1cccc(C2c3c(-c4cc(C)ccc4O)n[nH]c3C(=O)N2Cc2ccco2)c1 (stereo unspecified) | inconclusive: 25.1 µM [inhibitor, full curve] | – |
| COc1ccc2nc(C)cc(Nc3ccccc3O)c2c1 | inconclusive: 15.8 µM [inhibitor, partial curve, poor fit] | – |
| Nc1ccc(-n2nncc2-c2ccc(Cl)cc2)cc1 | inconclusive: 56.2 µM [inhibitor, partial curve, poor fit] | – |

| SMILES | Potency | activity change, negative = inhibition |
| --- | --- | --- |
| COc1ccc(NC2=NCC(Cc3ccc(Br)cc3)S2)cc1 (stereo unspecified) | inconclusive: 12.6 µM [inhibitor, partial curve] | – |
| Cc1cccc(N(C)S(=O)(=O)c2ccc3[nH]c(=O)c(=O)[nH]c3c2)c1 | inactive | – |
| O=C(c1cccs1)N1N=C(c2ccccc2)CC1c1ccc(O)cc1 (stereo unspecified) | inactive | – |
| CCN1CCN(Cc2ccc(NC(=O)c3ccc(C)c(NC(=O)C4=NN(c5ccccc5)C(=O)C4)c3)cc2C(F)(F)F)CC1 | inconclusive: 2.51 µM [inhibitor, full curve, poor fit] | – |
| CC(=O)c1ccc(NC(=O)CSc2nc(-c3cccc(F)c3)nc3c2c(=O)n(C)c(=O)n3C)cc1 | inactive | – |
| CCOc1ccc(CCNC(=O)CN2N=C(c3ccccc3)CCC2=O)cc1OCC | inactive | – |
| O=C(Cn1ccc([N+](=O)[O-])n1)Nc1ccccn1 | inactive | – |
| c1cc(-c2sc(-c3ccncc3)c(-c3ccncc3)c2-c2ccncc2)ccn1 | inconclusive: 28.2 µM [inhibitor, full curve] | – |
| CN(C)CCCn1c(=O)n(CCc2ccccc2)c(=O)c2c3c(sc21)CCCCC3 | active: 56.2 µM | – |
| CC(C)C[C@H]1CNC(=S)N1CC1CCCN1C[C@H](Cc1ccccc1)N1C[C@H](Cc2ccc(O)cc2)N(CC2CCCCC2)C1=S (stereo partly specified) | inconclusive: 7.08 µM [inhibitor, full curve, poor fit] | – |
| O=C(c1ccco1)N1N=C(c2cccs2)CC1c1ccco1 (stereo unspecified) | inactive | – |
| COc1cccc(C2CNC3(CCCC(C)C3)c3[nH]c4ccccc4c32)c1OC (stereo unspecified) | inconclusive: 44.7 µM [inhibitor, partial curve] | – |
| COc1ccc(C2CC(c3ccccc3)=NN2C(=O)CN2CCN(Cc3ccccc3)CC2)cc1 (stereo unspecified) | active: 79.4 µM | – |
| Cc1ccc(C)c(N2CCN(S(=O)(=O)c3cc4c(cc3Cl)NC(=O)CO4)CC2)c1 | inactive | – |
| COc1ccc2oc(C(=O)OCC(=O)NCc3ccccc3OC)c(C)c2c1 | inactive | – |
| COc1cc(-c2n[nH]c(=S)n2-c2ccc(C)cc2)cc(OC)c1OC | active: 5.01 µM | – |
| CC(C)C(C)(C#N)NC(=O)CSc1nc2scc(-c3ccco3)c2c(=O)n1-c1ccccc1 (stereo unspecified) | – | inactive: -3.05% [at 11.4 µM] |
| COCC1CCCN(Cc2cn(Cc3ccccc3)nc2-c2cc3ccccc3o2)C1 (stereo unspecified) | inactive | – |
| CCOc1ccc(NC(=O)c2cnn3c2NC(c2cccc(OC)c2)=CC3c2ccccc2)cc1 (stereo unspecified) | inactive | – |
| Cc1ccc(CN(C)C(=O)CSc2nnc3n2CCCCC3)c(C)c1 | inactive | – |
| CN1CCN(c2ccc([N+](=O)[O-])c(-n3nc(-c4ccccc4)c4ccccc4c3=O)c2)CC1 | active: 39.8 µM | – |
| CC(C)C[C@H]1CNC(=O)C(=O)N1CC1CCN(CCC(C)(C)C)CC1 | inconclusive: 89.1 µM [inhibitor, partial curve] | – |
| CCOC(=O)c1ccc(NC(=O)c2c(NCc3cccs3)sc3c2CCCC3)cc1 | inconclusive: 35.5 µM [inhibitor, partial curve] | – |
